In PubChem BioAssay (NCI):
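All cell lines were grown in 96-well plates and treated with compound for 48 hours. GI50 is the concentration that inhibits growth by half. TGI: concentration producing complete growth inhibition.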

What follows are compounds tested on NCI-H322M lung (assay: NCI tumour cell line growth inhibition, 48 h).
For `O=c1nc(-c2ccccc2)cc(-c2cc3ccccc3nc2Cl)[nH]1`, the GI50 was 12.3 µM and the TGI was 25.3 µM.
Compound `CC(=O)Nc1cccc(Nc2nc(NCc3ccccc3)c3ccccc3n2)c1` has a GI50 of 2.34 µM and a TGI of 7.68 µM.
Compound `O=C(NCCCCC(c1ccc(F)cc1)c1ccc(F)cc1)Nc1ccc([N+](=O)[O-])c(C(F)(F)F)c1` has a GI50 of 2.5 µM and a TGI of 9.09 µM.
